# Laboratory results published in PubChem BioAssay AID686978 (National Center for Advancing Translational Sciences (NCATS), 2013).
# Screen size: about 420,000 compounds; about 64,000 (15%) were called active. Inconclusive results, whose numbers are uncertain, are shown with a selection of clear calls. Calls come from the whole dose curve; as a rule, active = well fitted inhibition curve with a large enough effect; inconclusive = small, poorly fitted or top-dose-only effect; inactive = flat fitted curve, though single readings scatter. Potencies of inconclusive entries are left out as doubtful fits.
# Test: qHTS for Inhibitors of human tyrosyl-DNA phosphodiesterase 1 (TDP1): qHTS in cells in absence of CPT; note: nearly all actives have a fitted effect of over 55% in size
# Details: DT40 Tdp1-/- hTDP1 cells, no CPT, ATP luminescence, 48 h; activity change, negative = growth inhibition: at 46.2 µM (top of the series) unless noted
# In short: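 Growth kinetics read by CellTiter-Glo luminescence after ≥48 hr at 37 °C. Cells: DT40 Tdp1-/- stably carrying human TDP1, 400 per well, compound exposure in the absence of CPT (DMSO vehicle).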
# % is set by controls: 0 for no effect and ±100 for the full control effect; potency is the fitted concentration of half-maximal effect; tags give direction and shape of the fitted curve.
SMILES,Potency,"activity change, negative = growth inhibition"
Cc1cc2oc(=O)cc(CN3CCOCC3)c2cc1C(C)C,"inconclusive [inhibitor, single point]",–
CCOC(=O)c1c(C)oc2nc(C)nc(NCCc3ccc(C)cc3)c12,"inconclusive [inhibitor, single point]",–
Cc1cccc(NC(=O)Cn2c(=O)n(Cc3ccco3)c(=N)c3c4c(sc32)COC(C)(C)C4)c1,"inconclusive [inhibitor, single point]",–
CN(C)/C=C/C(=O)/C=C/c1cn(-c2ncc(C(F)(F)F)cc2Cl)c2ccccc12,"inconclusive [inhibitor, single point]",–
Cc1cccc(C)c1N(CC(=O)Nc1cccc(N(C)S(C)(=O)=O)c1)S(C)(=O)=O,"inconclusive [inhibitor, single point]",–
COc1cc(NC(=O)CN2CCCN(Cc3cccc(F)c3)S2(=O)=O)cc(OC)c1,"inconclusive [inhibitor, single point]",–
Cc1cccc(N(CC(=O)N/N=C/c2ccc(OCC(=O)NCc3ccco3)cc2)S(C)(=O)=O)c1C,–,inactive: -5.56%
COc1ccccc1N1CCN(CCN2C(=O)CC3(CCCC3)CC2=O)CC1,"inconclusive [inhibitor, single point]",–
CCN(CC)CCC/C(=N\O)C(O)(c1ccccc1)c1ccccc1,"inconclusive [inhibitor, partial curve]",–
C=CCNc1ncnc2c1cnn2-c1ccc(Cl)cc1,"inconclusive [inhibitor, single point]",–
CCCc1cc(N2CCN(c3ccccc3F)CC2)n2cnnc2n1,active: 25.9 µM,–
COc1ccc(S(=O)(=O)N(C)C2(C)CCS(=O)(=O)C2)cc1OC (centres undefined),–,inactive: -7.48%
Cc1ccccc1N1C(=O)C(Cl)=C(N2CCCCCC2)C1=O,"inconclusive [inhibitor, single point]",–
CCCC1NC(=O)c2cccnc2-n2c1nc1ccc(C)cc1c2=O (centres undefined),–,inactive: -19.6%
CC[C@H](C)N(C)C(=O)c1cc2ccccc2c(-c2ccccc2Cl)n1,active: 29.9 µM,–
CC1(c2nnnn2Cc2ccccc2)CCC(=O)N1CCOc1ccccc1 (centres undefined),"inconclusive [inhibitor, partial curve, poor fit]",–
CNC(=S)N/N=C/c1c(C)c(C(=O)c2ccc(F)cc2)n2ccccc12,"inconclusive [inhibitor, single point]",–
COc1c(C=O)c2c(c(OC)c1OC)-c1ccc(OC)c(=O)cc1C(NC(C)=O)CC2 (centres undefined),active: 0.0146 µM,–
CCc1ccc(N/C(=N/c2nc(C)cc(C)n2)NC(C)=O)cc1,"inconclusive [inhibitor, single point]",–
N#CC1=C(N)Oc2cc(N)ccc2C1c1ccccc1 (centres undefined),active: 18.4 µM,–
Cc1cccc(C(=O)Nc2ccc(N3CC=C(c4ccccc4C)CC3)c(C(=O)O)c2)c1,"inconclusive [inhibitor, single point]",–
Cc1ccc(CN2C(=O)c3ccccc3Sc3ccc(C(=O)N4CCOCC4)cc32)cc1,"inconclusive [inhibitor, single point]",–
Cc1sc2ncnc(NCCc3ccc(S(N)(=O)=O)cc3)c2c1C,active: 1.46 µM,–

SMILES,Potency,"activity change, negative = growth inhibition"
CC1CCN(S(=O)(=O)c2ccc(C(=O)Nc3ccccn3)cc2)CC1,"inconclusive [inhibitor, single point]",–
CC1=C(C(=O)N2CCCCC2)C(c2ccc(Cl)cc2)n2c(nc3ccccc32)N1 (centres undefined),"inconclusive [inhibitor, single point]",–
CCC(c1nnnn1-c1ccc2c(c1)OCCO2)N1CCN(c2ncccn2)CC1 (centres undefined),"inconclusive [inhibitor, single point]",–
O=C(CN1CCN(S(=O)(=O)c2ccc(Cl)cc2)CC1)NC(=O)NC1CCCCC1,"inconclusive [inhibitor, single point]",–
COc1ccc(-c2cn3cc(C)ccc3n2)cc1F,"inconclusive [inhibitor, single point]",–
COC(=O)c1ccccc1NC(=O)CNc1cc(OC)c(OC)cc1C,active: 18.4 µM,–
COc1ccc(C(=O)N[C@H](C(=O)NCCc2ccc3c(c2)OCCO3)C(C)C)cc1,"inconclusive [inhibitor, single point]",–
COc1ccc(-c2ccc3oc(-c4ccc(OC)cc4)c(-c4ccc(OC)cc4)c3c2)cc1,"inconclusive [inhibitor, partial curve]",–
Nc1ccc(C(=O)OCC(=O)N2c3ccccc3Sc3ccccc32)cc1[N+](=O)[O-],active: 7.31 µM,–
c1ccc(CCN2CCN(c3ncnc4c3cnn4-c3ccccc3)CC2)cc1,active: 18.4 µM,–
Cc1nc(C(F)(F)F)ccc1C(=O)N1CCC1(C)C(=O)NS(=O)(=O)c1cccc(Cl)c1 (centres undefined),–,inactive: -2.18%
Cc1cc(-c2nnc(-c3cc4ccccc4oc3=O)o2)c(C)n1-c1ccccc1,"inconclusive [inhibitor, single point]",–
Cc1cc(C)nc(SCC(=O)c2ccc3c(c2)OCCO3)n1,"inconclusive [inhibitor, partial curve, poor fit]",–
COc1cc(NC(=O)c2ccccc2-c2ccccc2)cc(OC)c1,"inconclusive [inhibitor, single point]",–
COc1ccc(NCC(=O)Nc2cccc(C(F)(F)F)c2)cc1S(=O)(=O)N1CCOCC1,"inconclusive [inhibitor, single point]",–
CCOc1ccc(NC(=O)CSc2oc(-c3ccco3)nc2S(=O)(=O)c2ccccc2)cc1,"inconclusive [inhibitor, single point]",–
CCCc1cc(=O)oc2cc(OCC(=O)NCCc3c[nH]c4ccccc34)ccc12,active: 16.4 µM,–
CC(CCc1ccccc1)NC(=O)c1ccccc1F (centres undefined),"inconclusive [inhibitor, full curve, poor fit]",–
CN1CCN(c2ncc3nc(-c4cccc(C#N)c4)c(=O)n(CCc4ccccc4)c3n2)CC1,"inconclusive [inhibitor, single point]",–
COc1ccc(-c2cn3c(C)c(C(=O)Nc4ccncc4)sc3n2)cc1,active: 5.8 µM,–
Cc1cccc(NC(=O)c2oc3c(c2C)C(=O)CC(C)(C)C3)n1,active: 5.17 µM,–
COc1ccc(CNC(=O)Nc2nc(C(N)c3ccccc3)cs2)cc1 (centres undefined),active: 20.6 µM,–
COc1ccc(CNC(=O)CCCc2nnc3n(C(C)C)c(=O)c4sccc4n23)cc1,"inconclusive [inhibitor, single point]",–

SMILES,Potency,"activity change, negative = growth inhibition"
COc1ccc(S(=O)(=O)N2CCCC2CNC(=O)C(=O)NCc2ccccc2)cc1 (centres undefined),"inconclusive [inhibitor, single point]",–
O=C(COC(=O)c1ccc2ccccc2c1O)NCC(F)(F)F,"inconclusive [inhibitor, single point]",–
CCOC(=O)C1C(=O)CC(C)(O)C(C(=O)OCC)C1c1ccc(Br)cc1 (centres undefined),"inconclusive [inhibitor, single point]",–
COc1ccc(OC)c(-c2cc(C(=O)N/N=C/c3ccc(F)cc3)c3ccccc3n2)c1,active: 1.03 µM,–
Cc1cccc(-c2cc(C(=O)N/N=C/c3cccnc3)c3ccccc3n2)c1,"inconclusive [inhibitor, partial curve]",–
Cc1ccc(CSc2nnc([C@@H]3CCCN3C(=O)OC(C)(C)C)o2)cc1,"inconclusive [inhibitor, single point]",–
O=C(c1ccc(CSc2nc3ccncc3[nH]2)cc1)N1CCCCCC1,"inconclusive [inhibitor, partial curve]",–
O=C(COc1ccccc1F)Nc1ccc2nc(SCC(=O)N3CCOCC3)sc2c1,active: 11.6 µM,–
Cc1cc(NC(=S)N(CCCN2CCN(C)CC2)Cc2ccco2)ccc1Cl,–,inactive: -8.88%
CO/N=C(\c1ccccc1)c1cccnc1,–,inactive: 22.8%
CCOC(=O)c1ccc(NC(=O)C2CCCN(S(=O)(=O)c3ccc(F)cc3)C2)cc1 (centres undefined),active: 23.1 µM,–
Cn1c(SCC(=O)Nc2cccc(F)c2)nc2c(c1=O)SCC2,active: 18.4 µM,–
O=S(=O)(c1ccccc1)c1nc(-c2ccc(F)cc2)oc1NCc1ccccc1,"inconclusive [inhibitor, single point]",–
COc1cc(C(=O)NCC(=O)OCCN2C(=O)c3ccccc3C2=O)cc(OC)c1OC,–,inactive: 5.28%
CCOC(=O)c1cccc(NC(=O)CSc2ncc3c(n2)-c2ccc(Cl)cc2N(Cc2ccccc2)S3(=O)=O)c1,active: 1.46 µM,–
CCn1c(C)nc2cc(C(=O)NNC(=O)Nc3ccc(Cl)cc3)ccc21,–,inactive: -13.8%
CCOC(=O)C1(CCOc2ccccc2)CCN(Cc2ccc(-n3cccn3)cc2)CC1,active: 16.4 µM,–
CC(=O)c1cccc(CN2CCC(CO)(CCCc3ccccc3)CC2)c1,active: 23.1 µM,–
Oc1ccc(-c2csc(Nc3ccccn3)n2)c(O)c1,"inconclusive [inhibitor, single point]",–
COc1ccc(NS(=O)(=O)c2ccc3c(c2)CCC(=O)N3)cc1O,–,inactive: 3.62%
COc1ccc(C(=O)C2CCCN(Cc3ccc4nonc4c3)C2)c(OC)c1 (centres undefined),"inconclusive [inhibitor, single point]",–
O=C(C[C@H]1C[C@@H]2c3cc(NC(=O)C4CCC4)ccc3O[C@@H]2[C@H](CO)O1)NC1CCCCC1,"inconclusive [inhibitor, partial curve]",–
O=C(CC1C(=O)CCCC1=O)c1ccccc1,"inconclusive [inhibitor, single point]",–
